Out of some 310,000 compounds screened, about 2,200 (0.71%) showed an effect of 50% or more. Effects have a minus sign here. The list shows a part of the results.
target: human ether-à-go-go-related gene (hERG) potassium channel (human, UniProt Q12809); assay: primary screen, population patch clamp on CHO cells stably expressing hERG
Sequence (Q12809 whole entry, looked up): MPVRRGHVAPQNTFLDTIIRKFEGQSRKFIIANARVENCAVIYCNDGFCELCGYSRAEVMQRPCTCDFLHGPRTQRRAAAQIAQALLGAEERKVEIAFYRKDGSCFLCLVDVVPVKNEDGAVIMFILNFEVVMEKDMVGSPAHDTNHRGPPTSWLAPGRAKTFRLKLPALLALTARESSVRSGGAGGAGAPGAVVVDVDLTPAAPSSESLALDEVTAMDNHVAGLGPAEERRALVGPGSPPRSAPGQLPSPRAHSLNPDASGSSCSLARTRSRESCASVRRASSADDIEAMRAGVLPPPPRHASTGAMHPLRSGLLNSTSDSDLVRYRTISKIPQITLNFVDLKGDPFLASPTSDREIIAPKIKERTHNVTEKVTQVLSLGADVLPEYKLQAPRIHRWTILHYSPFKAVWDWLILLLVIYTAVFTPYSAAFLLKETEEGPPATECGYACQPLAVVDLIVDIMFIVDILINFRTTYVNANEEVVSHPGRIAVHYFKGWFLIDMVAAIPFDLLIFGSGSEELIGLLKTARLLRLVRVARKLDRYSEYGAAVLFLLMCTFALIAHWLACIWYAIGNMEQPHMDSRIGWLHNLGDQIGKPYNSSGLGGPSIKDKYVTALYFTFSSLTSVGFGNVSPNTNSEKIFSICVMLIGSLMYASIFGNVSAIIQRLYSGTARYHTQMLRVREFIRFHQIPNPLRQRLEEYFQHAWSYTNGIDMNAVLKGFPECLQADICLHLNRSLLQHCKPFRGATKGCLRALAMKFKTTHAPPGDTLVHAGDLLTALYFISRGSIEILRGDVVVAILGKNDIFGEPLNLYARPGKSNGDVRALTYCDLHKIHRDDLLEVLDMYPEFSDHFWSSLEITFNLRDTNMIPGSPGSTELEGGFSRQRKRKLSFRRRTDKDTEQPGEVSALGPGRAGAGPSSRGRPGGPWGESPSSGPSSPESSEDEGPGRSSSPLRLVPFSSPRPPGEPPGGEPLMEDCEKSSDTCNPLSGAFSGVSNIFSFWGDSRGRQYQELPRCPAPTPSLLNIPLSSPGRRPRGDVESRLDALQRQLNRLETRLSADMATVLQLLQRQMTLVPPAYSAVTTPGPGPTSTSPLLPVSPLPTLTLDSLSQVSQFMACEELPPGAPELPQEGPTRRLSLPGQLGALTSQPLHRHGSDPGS

| Compound | hERG current change (%, negative = inhibition) at 1uM |
| --- | --- |
| CC1CCCCC1NC(=O)CN(C)S(=O)(=O)c1cccc2cccnc12 (stereo not shown) | 5.74% |
| COc1ccc(C(=O)Nc2ccc3ncccc3c2)cc1 | 19.9% |
| Cc1csc(NC(=O)CSc2nc3ccccc3c(=O)[nH]2)n1 | 9.95% |
| CCN(C(=O)COC(=O)CNC(=O)C12CC3CC(CC(C3)C1)C2)C1CCS(=O)(=O)C1 (stereo not shown) | 13% |
| CCc1ccc2c(CN3CCN(S(=O)(=O)c4ccc5c(c4)OCCO5)CC3)cc(=O)oc2c1 | 8.02% |
| O=C(Oc1ccc(OC(=O)N2CCOCC2)cc1)c1ccccc1 | 9.96% |
| Cn1c(CCc2nc3ccccc3[nH]2)nnc1SCC#N | 12.8% |
| Cc1nn(C(=O)c2ccccc2)c2c1C(=O)CC(C)(C)C2 | 8.19% |
| Cc1cccc(NC(=O)CN2CCN(C(=O)c3oc4c(Cl)cccc4c3C)CC2)c1C | -6.46% |
| CCc1ccc(-c2nnn(Cc3nc4ccccc4s3)n2)cc1 | -5.03% |
| Nc1nn(S(=O)(=O)c2ccccc2)cc1-c1cccc([N+](=O)[O-])c1 | 5.91% |
| Cc1ccc(S(=O)(=O)N2CCC[C@H]2C(=O)OCC(=O)c2ccc3c(c2)NC(=O)CO3)cc1 | -10.2% |
| CCCC(=O)Nc1ccc(C(=O)Nc2cc(C(F)(F)F)ccc2Cl)cc1 | 11.5% |
| COc1ccc(CCNC(=O)C2CCN(C(=O)c3cccs3)CC2)cc1 | 5.64% |
| C#CCNC(=O)C(C)c1ncc(C(F)(F)F)cc1Cl (stereo not shown) | 15.9% |
| CSc1ccc(CN2CCC(n3nccc3NC(=O)CCCc3ccccc3)CC2)cc1 | -35.7% |
| O=C(O)C(=O)O.c1ccc(COc2ccc(OCCCN3CCCCC3)cc2)cc1 | -57.7% |
| O=C(NC1CC1)C1=C[C@@H](c2c[nH]c3ccccc23)C[C@@H](OCCCCO)O1 | 12.4% |
| Cc1cc(C(=O)Nc2nc3ccc(Cl)cc3s2)nn1C | 14.5% |
| CCC(C)(C)NC(=O)Cc1ccc(OC)c(OC)c1 | 8.06% |
| COc1cccc(C(=O)Nc2ccc(NC(=O)c3ccco3)cn2)c1 | 5.61% |
| O=C(CSc1n[nH]c(=O)n1-c1cccnc1)N1CCOCC1 | -4.15% |

| Compound | hERG current change (%, negative = inhibition) at 1uM |
| --- | --- |
| Br.CCC1(C)CC(c2nc(-c3ccc(OC)cc3)cs2)CCS1 (stereo not shown) | 4.66% |
| Cc1ccc(/C=C/C(=O)NCCc2c[nH]c3ccccc23)o1 | 5.1% |
| COc1ccc(N2CCN(C(C)C(=O)N3CC(C)OC(C)C3)CC2)cc1.O=C(O)C(=O)O (stereo not shown) | 9.01% |
| CCOc1ccc(CN2CCN(Cc3cc4ccccc4o3)CC2CCO)cc1 (stereo not shown) | -82% |
| Cc1ccc(C(=O)NCCCNCCCN(C)C)cn1.O=C(O)/C=C/C(=O)O | -1.6% |
| COC(=O)c1sc2nc(SCc3ccccc3C#N)n(N)c(=O)c2c1C | 4.1% |
| COC(=O)Sc1nc(N2CCOCC2)c2c(c1C#N)CC(C)(C)OC2 | 11.2% |
| Cc1cc(C(=O)Nc2ccc(Nc3ccccc3)cc2)ccc1[N+](=O)[O-] | 10.9% |
| Cc1cc(C)c2cc(C#N)c(N3CCCN(C(=S)NCCCN(C)C)CC3)nc2c1 | 6.74% |
| Cc1scc(C(=O)N/N=C/c2ccc(OCC(C)C)cc2)c1C | 10.7% |
| Cc1c(C(=O)N(CCc2ccccc2)Cc2ccccc2)cccc1[N+](=O)[O-] | 12.7% |
| COc1ccccc1C(=O)NCCC(=O)OCC(=O)Nc1ccc(S(N)(=O)=O)cc1 | 8.56% |
| COC(=O)C1=C(c2ccc(F)cc2OCc2ccccc2)C[C@@H]2CC[C@H]1N2C(=O)NCc1ccc2[nH]ccc2c1 | 16.7% |
| COc1cccc(C(C(=O)NC(C)(C)C)N(C(=O)CCC(=O)Nc2cc(C)on2)c2ccc3c(c2)OCCO3)c1OC (stereo not shown) | 12.9% |
| O=C(Nc1ccccc1F)c1ccc(-n2cncn2)nc1 | 5.06% |
| Nc1c(N(CCCO)C(=O)C2CCCC2)c(=O)[nH]c(=O)n1Cc1ccccc1 | 11.7% |
| CCN1CCN(CCCNC(=O)c2ccc3c(c2)N(Cc2ccccc2)CCS3)CC1 | 0.086% |
| O=C(CSc1ccccn1)N1CCN(c2cccc(Cl)c2)CC1 | -5.82% |
| Cc1cccc(NC(=O)COC(=O)Cc2cccc(C(F)(F)F)c2)c1C | 15.8% |
| O=C(CSc1nnnn1-c1ccccc1)NCC1(N2CCCCC2)CCCCC1 | -23.9% |
| CCOC(=O)CCC(NC(=O)c1cncc(O)c1)C(=O)OCC.Cl (stereo not shown) | 5.71% |
| COc1cc(C(=O)NCC2(N3CCCCC3)CCCCC2)ccc1OCC(=O)N1CCOCC1 | 4.46% |

| Compound | hERG current change (%, negative = inhibition) at 1uM |
| --- | --- |
| Cc1oc2ccc(O)c(CN3CCOCC3)c2c1C(=O)c1ccc(Cl)cc1 | -6.46% |
| COC(=O)c1c(C)[nH]c(C(=O)OC(C)C(=O)N2CCOCC2)c1C (stereo not shown) | 13% |
| CC(C)CNC(=O)COC(=O)c1ccc(F)cc1Cl | 15.8% |
| CN(C)c1ccc(C2CC(c3cccc(NS(C)(=O)=O)c3)=NN2C(=O)c2ccccc2)cc1 (stereo not shown) | 17.8% |
| Cc1ccc(S(=O)(=O)c2c(N)n(CCN3CCOCC3)c3nc4ccccc4nc23)cc1C | -5.02% |
| COc1ccccc1/C=C/C(=O)OCC(=O)Nc1ccc(Cl)cn1 | 21.6% |
| Cc1nnc(SCC(=O)NC2CCCCCC2)n1C(C)C | 0.341% |
| NC(=O)[C@@H]1CC2(CC(c3cccc(NC(=O)[C@@H]4CCC(=O)N4)c3)=NO2)CN1C(=O)Cc1ccc([N+](=O)[O-])cc1 (stereo partly shown) | 8.18% |
| BrC(/C=N/Nc1nc(N2CCOCC2)nc(N2CCOCC2)n1)=C/c1ccccc1 | 12% |
| COCCN(CC(=O)NCc1ccccc1)C(=O)CCC(=O)Nc1ccccn1 | -1.53% |
| CC1(C)OC(c2ccccc2)=C/C(=C/C=C2C(=O)c3ccccc3C2=O)O1 | 16.6% |
| CN1CCN(Cc2nc3cc(NC(=O)COc4ccc([N+](=O)[O-])cc4)ccc3n2C)CC1 | 14.1% |
| CC(C)Cn1c(NCCO)nc2ccccc21 | 5.88% |
| Cc1cccc(OCCCCc2c(C)n[nH]c2C)c1 | 10.4% |
| Cl.N=c1c[n+](-c2ccc(Cl)cc2)[n-]o1 | 5.36% |
| Cc1ccc(-n2nc3c(c2NC(=O)/C=C\c2ccc4c(c2)OCO4)CSC3)c(C)c1 | 12.1% |
| O=C(Cc1c[nH]c2ccccc12)NCc1ccccc1F | 18.2% |
| Cc1[nH]n(C(N)=S)c(=O)c1N=Nc1ccc([N+](=O)[O-])cc1Cl | 14.5% |
| COc1cccc(-c2cnc(OC(C)(C)C)nc2OC(C)(C)C)c1 | 15.2% |
| Cc1cc(NC(=O)c2ccc3c(c2)OCO3)ccc1NC(=O)c1ccco1 | 7.26% |
| COc1ccc(N2CCN(C(=O)c3ccc4c(Cl)c5c(nc4c3)CCCC5)CC2)cc1 | 5.91% |
| O=C(NNS(=O)(=O)c1ccc(Br)cc1)c1ccccc1-n1cccc1 | -4.47% |

| Compound | hERG current change (%, negative = inhibition) at 1uM |
| --- | --- |
| O=C(O)/C=C\C(=O)NNC(=O)c1cc(-c2ccccc2)n[nH]1 | 6.09% |
| O=C(c1cccc([N+](=O)[O-])c1)N1CC2C3C=CC(C3)C2C1 (stereo not shown) | 22.4% |
| COc1cccc(C(=O)Nc2cc(C(=O)NCc3ccc(C)cc3)ccc2N2CCC3(CC2)CC(c2ccccc2)=NO3)c1 | 9.12% |
| CCc1cc2c(=O)c(-c3ccc(F)cc3)c(C(F)(F)F)oc2cc1OCC(=O)O | 10.1% |
| CC(C)OC(=O)CSc1nnc(-c2ccc(O)cc2)n1Cc1ccccc1 | 10.7% |
| Cc1ccc(C(=O)NC2CCCC2)s1 | 0.734% |
| O=C(Nc1cccc(Cl)c1)Nc1ccc(Br)cc1F | 8.99% |
| CCN(CC)Cc1c(O)ccc2occ(C(=O)c3ccccc3)c12 | -57.3% |
| Cc1ccnc(SCC(=O)Nc2c(C)n(C)n(-c3ccccc3)c2=O)n1 | 11.4% |
| O=C(CN1CCc2cc3c(cc2C1)OCCCO3)Nc1ccc(S(=O)(=O)N2CCCC2)cc1 | 5.36% |
| CC(NS(=O)(=O)c1ccc2c(c1)CC(C)N2C(=O)C1CC1)c1ccccc1 (stereo not shown) | 20.3% |
| Nc1nc(SCC(=O)c2ccc(Br)s2)n[nH]1 | 16% |
| O=[N+]([O-])c1cccc(CN2CCN(S(=O)(=O)Cc3ccccc3)CC2)c1 | 4.75% |
| O=C(CN1CCCCC1)N1CCCc2c1c(=O)oc1ccc(OCc3ccccc3)cc21 | -12.3% |
| CCN(CC)S(=O)(=O)c1cccc(C(=O)N/N=C/c2cc(OC)c(O)c(OC)c2)c1 | 9.53% |
| CC(=O)c1ccc(NS(=O)(=O)Cc2ccccc2)cc1 | 10.8% |
| CSc1cccc(N2CC(C(=O)NCCN3C(=O)S/C(=C\c4cccnc4)C3=O)CC2=O)c1 (stereo not shown) | -21% |
| O=C(COC(=O)C1CCC(=O)N1)Nc1ccccc1Br (stereo not shown) | 12% |
| COc1ccccc1N1CCN(Cc2cc3c(cc2[N+](=O)[O-])OCO3)CC1 | 13.7% |
